We go through 102 compounds from paper PMC6919601, “Identification of Plasmodium dipeptidyl aminopeptidase allosteric inhibitors by high throughput screening” (PLoS ONE, 2019).

About 230 (0.21%) of roughly 110,000 compounds showed an effect of 50% or more. This is one part of the list.
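Also: 30 min substrate incubation versus DMSO and 10 µM JCP410 controls.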

This experiment deals with DPAP1 (Plasmodium falciparum, UniProt Q8IIJ9). As to the kind of experiment: primary screen, percent inhibition; read by cleavage of a fluorogenic dipeptide substrate; higher = more effect of the substance. The arrangement: species or system P. falciparum D10 trophozoite lysates; single well.
DPAP1, sequence (Q8IIJ9 whole entry, looked up): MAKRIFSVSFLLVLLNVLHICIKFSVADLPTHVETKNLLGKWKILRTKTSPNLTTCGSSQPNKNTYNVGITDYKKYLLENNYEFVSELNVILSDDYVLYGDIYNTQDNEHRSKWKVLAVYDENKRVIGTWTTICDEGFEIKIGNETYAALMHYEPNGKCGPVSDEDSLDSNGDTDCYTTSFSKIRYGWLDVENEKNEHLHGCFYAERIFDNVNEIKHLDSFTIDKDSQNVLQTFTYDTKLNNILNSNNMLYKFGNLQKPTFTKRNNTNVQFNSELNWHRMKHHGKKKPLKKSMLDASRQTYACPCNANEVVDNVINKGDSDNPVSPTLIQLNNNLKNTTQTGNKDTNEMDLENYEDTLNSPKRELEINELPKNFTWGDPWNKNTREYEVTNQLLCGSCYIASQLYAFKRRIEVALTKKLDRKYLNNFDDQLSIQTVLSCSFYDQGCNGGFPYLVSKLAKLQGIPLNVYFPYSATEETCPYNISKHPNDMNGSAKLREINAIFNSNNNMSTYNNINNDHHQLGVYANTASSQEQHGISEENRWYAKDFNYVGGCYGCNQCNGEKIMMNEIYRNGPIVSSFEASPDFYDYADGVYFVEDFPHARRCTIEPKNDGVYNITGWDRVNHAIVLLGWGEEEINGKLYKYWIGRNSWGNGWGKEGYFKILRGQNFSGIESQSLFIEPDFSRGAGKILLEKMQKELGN
In the case of `O=C(NCc1cccnc1)c1nnc(-c2cccnc2)o1`, the “% Inhibition @ 10 uM” value is reported as 4.47%.
As for `C/C(=C\c1ccco1)C(=O)c1c(C)cc(C)nc1O`, the “% Inhibition @ 10 uM” value was determined as 0.135%.
To `Cc1ccc2nc(N(CCN(C)C)C(=O)c3ccc(Br)s3)sc2c1` belongs -8.86%; to `CC1=C(C(=O)Nc2ccc(F)cc2)C(c2ccccc2Cl)C2=C(O)CCCC2=N1` (stereo not drawn), 2.38%; to `CCc1c(C)sc(NC(=O)c2cccs2)c1C(N)=O`, 1.27%.
In the case of `COC(=O)c1nc2nc(-c3cccs3)cc(C(F)(F)F)n2n1`, the “% Inhibition @ 10 uM” value stood at 1.4%.
To `Oc1c(Cl)cc(Cl)cc1CN1CCc2ccccc2C1` belongs -1.5%; to `CCOc1cccc(/C=C2/SC(=O)N(CC(=O)N3CCN(c4ccccc4)CC3)C2=O)c1O`, 1.86%.
Then `CCN1C(=O)C(CC(=O)Nc2ccccc2)S/C1=N/c1ccc(S(N)(=O)=O)cc1` (stereo not drawn), with -5.83%.
Then `O=C(Nc1ccc(Cl)cc1)NC(CC(=O)c1ccc([N+](=O)[O-])cc1)C(Cl)(Cl)Cl` (stereo not drawn), with -5.5%.
As to `CC(C)Cn1c(CN2CCCCC2)nc2c1c(=O)n(C)c(=O)n2C`, the “% Inhibition @ 10 uM” value is listed as 0.317%.
As for `Cc1cccc(NC(=O)CSc2nc(C)cc(C)c2C#N)n1`, the “% Inhibition @ 10 uM” value came out at 5.66%.
To `Cc1ccc(CCSc2ccc(C(C)C)cc2)cn1` belongs 0.266%; to `CCOc1cc2c(cc1OCC)C(C(=O)O)C(c1ccc(OC)c(O)c1)N(C)C2=O` (stereo not drawn), -4.23%.
To `Brc1ccc(-c2csc(N3N=C(c4ccccc4)CC3c3ccccc3)n2)cc1` (stereo not drawn) belongs -2%; to `CS(=O)(=O)N(CC(=O)N1CCN(c2cccc(Cl)c2)CC1)c1cccc(Cl)c1Cl`, 1.72%; to `COc1cccc(-c2nc(O)c3c(n2)Oc2c(C)cccc2C3)c1OC`, 6.98%.
Then `Cn1c(=O)c2c(nc(SCC(=O)Nc3ccccc3)n2Cc2ccccc2)n(C)c1=O`, with -2.88%.
On to `O=C(NCCC1=CCCCC1)c1cnn2c(C(F)(F)F)cc(-c3cccs3)nc12`, for which the “% Inhibition @ 10 uM” value is listed as 7.37%.
Take `CCN(C(=O)Nc1cccc(Cl)c1)c1ccccc1`: the “% Inhibition @ 10 uM” value is reported as 1.96%.
Then `CCc1ccc(C2N(c3nccs3)C(=O)C3CCCN32)cc1` (stereo not drawn), with 1.23%; and `CCn1c(C(=O)NCCCN2CCOCC2)cc2sc(Cl)cc21`, with -6.68%.
To `Cc1cccn2c(=O)c3cc(C(=O)NCc4ccco4)n(C)c3nc12` belongs 0.331%; to `Cc1ccc2oc(-c3ccc(Cl)c(Cl)c3)c(O)c(=O)c2c1`, -1.69%; to `CCOC(=O)c1ccc2[nH]c3c(c2c1)CCCC3NC=O` (stereo not drawn), 2.7%.
In the case of `CC(=O)NC(Cc1ccccc1)Cc1ccccc1`, the “% Inhibition @ 10 uM” value is given as 0.968%.
In the case of `Cn1c(=O)c(C#N)cn(Cc2ccc(Cl)c(Cl)c2)c1=O`, the “% Inhibition @ 10 uM” value is given as -6.69%.
As to `CC(=O)N1c2ccccc2N=C2CC(C)(C)CC(O)=C2C1c1ccc(C(F)(F)F)cc1` (stereo not drawn), the “% Inhibition @ 10 uM” value is listed as 3.72%.
Then `CC(C)(C)S(=O)(=O)c1ccncc1`, with 4.93%; and `COc1ccc(OCc2ccc(C3C(C#N)=C(N)OC4=C3C(=O)CCC4)cc2OC)cc1` (stereo not drawn), with -0.318%.
To `CC(=O)NC1(C2CCCCC2=O)CCCCC1` (stereo not drawn) belongs -4.96%; to `CC(CN1CCN(c2ccccc2F)CC1)c1ccccc1` (stereo not drawn), -5.11%; to `CCN(CC)CCOc1cccc(Cl)c1`, 1.29%.
To `Cc1ccc(CNC(=O)C2CCC(CNS(=O)(=O)c3csc(C(N)=O)c3)CC2)cc1` (stereo not drawn) belongs -1.59%; to `CC(C)C[C@H](NC(=O)OCc1ccccc1)C(=O)N[C@H](C#N)CCC(=O)OCc1ccccc1`, 11.1%.
In the case of `CCOCC(=O)Nc1ccc2c(c1)c1ccccc1n2CC`, the “% Inhibition @ 10 uM” value is -4.15%.
In the case of `CCOC(=O)c1c(C)[nH]c(C)c1S(=O)(=O)NCC(=O)N1CCN(CC)CC1`, the “% Inhibition @ 10 uM” value is reported as -8.46%.
Then `Nc1nc(S)nc2sc3c(c12)CCN(Cc1ccccc1)C3`, with 54.1%.
As to `CC(CNC(=O)c1csc2c1CCCC2)c1ccccc1` (stereo not drawn), the “% Inhibition @ 10 uM” value was 0.277%.
Regarding `Cc1[nH]c2ccccc2c1Cc1nnc(SCC(N)=O)o1`, the “% Inhibition @ 10 uM” value is 4.08%.
Then `CCOC(=O)c1cnc(SC)nc1-c1ccccc1`, with -2.73%; and `CC(C)NC(=O)NS(=O)(=O)c1cnccc1NC1CC2CCC1C2` (stereo not drawn), with -4.12%; and `CC1=CC2=NC(=O)/C(=C\c3cccn3CCCOc3ccc(C)cc3)C(=N)N2O1`, with -1.43%.
To `COc1cc(OC)nc(NC(=O)Nc2ccc(Cl)cc2)n1` belongs 2.38%.
For `COc1ccc(C)cc1NC(=O)c1cccnc1`, the “% Inhibition @ 10 uM” value is on record as 3.89%.
To `COc1ccc(C(=O)Nc2cnn(Cc3ccc(Cl)cc3)c2)cc1OC` belongs -2.97%; to `CP(=O)(O)c1nc2ccccc2s1`, -2.44%.
Then `O=C(Nc1cccc(O)c1)c1ccc(S(=O)(=O)N2CCCCCC2)cc1`, with -2.37%; and `CCN(CC)CCNc1ncnc2c1cnn2-c1ccc(C)cc1`, with 4.77%; and `COc1ccc(CCNC(=O)Cn2c(=O)c3cccn3c3cccnc32)cc1OC`, with -6.92%.
Then `CC(C)C[C@H](NC(=O)[C@H](CCCNC(N)=O)NC(=O)OC(C)(C)C)C(=O)NCC#N`, with -1.82%.
In the case of `Cc1cccc(OCC(O)Cn2nc(C)cc2C)c1` (stereo not drawn), the “% Inhibition @ 10 uM” value is -5.26%.
As for `COc1cccc(C(=O)N[C@@H](Cc2cc(Cl)c(O)c(Cl)c2)C(=O)NCC#N)c1`, the “% Inhibition @ 10 uM” value is recorded as 1.7%.
As for `Cc1ccc2c(c1)-c1onc(C(=O)Nc3cc(-c4cccc(Cl)c4)no3)c1CO2`, the “% Inhibition @ 10 uM” value is recorded as -2.9%.
To `Cc1ccc(C2C(C=C3C(=O)NC(=O)NC3=O)=C(c3cccs3)Oc3ccccc32)cc1` (stereo not drawn) belongs -0.467%.
Then `O=C(Nc1ccc2nc(SCC(=O)N3CCOCC3)sc2c1)c1ccccc1Br`, with 15.8%; and `COc1ccc2ncc(C(=O)c3ccc(C)cc3)c(N3CCOCC3)c2c1`, with -7.13%; and `COc1ccc(CN(C)C2CCN(C)CC2)cc1C`, with -0.828%.
To `O=c1/c(=C/c2ccc(O)cc2)sc2n1CCCN=2` belongs 5.85%; to `O=S(=O)(Nc1ccc(S(=O)(=O)Nc2ccc(F)cc2)cc1)c1ccc(Cl)cc1`, -2.8%; to `Cn1c(=O)[nH]c(=O)c2c1nc(SCC(=O)O)n2Cc1cccc(Br)c1`, -6.7%.
As to `O=C(NC1c2ccccc2Oc2ccccc21)c1cnccn1`, the “% Inhibition @ 10 uM” value is given as 3.01%.
`Cc1cc(N2CCC(C(N)=O)CC2)nc2cc(O)ccc12`: the “% Inhibition @ 10 uM” value was -8.68%.
Then `CCOc1ccccc1CNCc1c(C(=O)O)[nH]c2cc(C)ccc12`, with -1.53%; and `COc1ccc(CCNS(=O)(=O)c2ccc3oc(=O)c4ncn(C)c4c3c2)cc1OC`, with -3.9%.
To `O=C(c1cccs1)N(Cc1ccco1)Cc1ccccc1Cl` belongs -2.21%; to `CC(C(=O)NCc1ccc(Cl)cc1)n1cccc1C(=O)c1ccccc1` (stereo not drawn), -0.522%; to `C=CCn1c(SC(C)C)nnc1-c1ccc2[nH]c(C)c(C)c2c1`, 0.238%.
To `Cc1ccc(C)c(-c2nc(NC(=O)C3C4C=CC(C4)C3C(=O)O)sc2C)c1` (stereo not drawn) belongs 7.16%.
Regarding `N#CC1=C(N)OC2=C(C(=O)CC(c3ccccc3)C2)C1c1ccc2c(c1)OCO2` (stereo not drawn), the “% Inhibition @ 10 uM” value is 6.56%.
Then `O=S(=O)(NCc1ccc(F)cc1)c1ccc(-n2cnnn2)cc1`, with 0.635%.
On to `Nc1ccccc1-c1nc(-c2ccccc2)nc2ccccc12`, for which the “% Inhibition @ 10 uM” value is on record as -2.42%.
Then `Cc1ccccc1C(=O)Nc1sc2c(c1C(=O)NCCO)CCC(C(C)(C)C)C2` (stereo not drawn), with 5.31%.
Then `COc1cc2c(cc1OC)C(c1cccc(Br)c1)NCC2` (stereo not drawn), with 3.31%; and `CC(C)n1c(-c2nonc2N)nc2ccccc21`, with 7.62%; and `Cc1cccc(C(=O)Nc2ccc3c(c2)OCO3)c1`, with -5.32%.
As to `COCCCN1C(=O)/C(=C\c2cc(C)n(-c3ccc(F)cc3)c2C)C(C(=O)OC)=C1C`, the “% Inhibition @ 10 uM” value is -3.63%.
Then `COc1ccc2c(c1OC)C(c1ccccc1)(c1ccccc1)OC2`, with 1.35%; and `COc1ccc(C2CC(=O)C3=C(C2)OC(N)=C(C#N)C3c2ccccc2F)cc1` (stereo not drawn), with -1.08%; and `COc1cc(C#CCN2CCCCC2)ccc1O`, with -3.6%.
On to `COc1cc(Cl)c(C=C2C(=O)c3ccccc3C2=O)cc1OC`, for which the “% Inhibition @ 10 uM” value is given as -3.28%.
To `CC1CN(c2cc([N+](=O)[O-])ccc2Cl)CC(C)N1` (stereo not drawn) belongs 1.4%.
Then `Cc1nc(N)nc(C)c1Cc1ccccc1`, with 9.29%; and `CCc1[nH]nc2c1C(c1ccc(-c3ccc(Cl)cc3)o1)C(C#N)=C(N)O2` (stereo not drawn), with -0.968%; and `COc1ccc(-c2nc(CS(=O)CC(=O)NCCC3=CCCCC3)c(C)o2)cc1` (stereo not drawn), with 0.689%.
To `N=C(NOC(=O)c1ccc(Cl)cc1Cl)c1ccccn1` belongs -8.88%.
Take `C=CCSc1nc(=O)cc(O)n1C`: the “% Inhibition @ 10 uM” value was determined as 0.526%.
To `Cc1ccc(OCCCCCc2c(C)n[nH]c2C)c(C)c1` belongs -0.833%; to `COc1ccc(C2C3=C(O)CC(C)(C)CC3=Nc3nc(SC)nn32)cc1Br` (stereo not drawn), -9.03%; to `COc1ccc(-c2nc(N)c(C#N)c(-c3ccco3)c2C)cc1`, 2.1%.
Then `C=C(C)Cn1c(C(C)NC(=O)CCC)nc2ccccc21` (stereo not drawn), with 1.41%; and `Cc1ccc(C(C)C)c(OCC(=O)Nc2ccc(S(=O)(=O)N3CCOCC3)cc2)c1`, with 2.05%; and `COc1cc(S(=O)(=O)N2CCCCCC2)c(OC)cc1Cl`, with -1.32%.
Then `COCCCN1CCc2nc(S)nc(O)c2C1`, with -3.85%; and `CN1CCC(N(C)Cc2c(F)cccc2Cl)CC1`, with -7.93%.
Take `COCCN1C(=O)c2ccccc2C(C(=O)N2CCN(Cc3ccccc3)CC2)C1c1cccs1` (stereo not drawn): the “% Inhibition @ 10 uM” value is on record as -0.613%.
Then `COc1ccc(C2CC(C(F)(F)F)n3ncc(C(=O)NCc4cnn(C)c4C)c3N2)cc1OC` (stereo not drawn), with -5.7%.
Consider `Cc1cc(C)c(Cn2cccc2C2=NC(C)CO2)c(C)c1` (stereo not drawn), for which the “% Inhibition @ 10 uM” value is on record as -3.39%.
To `Cc1ccc(NC(=O)CN2CCOCC2)cc1Cl` belongs 5.39%; to `CCOc1ccc(/C=c2/sc3nnc(-c4ccccc4C)n3c2=O)cc1`, 2.24%; to `Oc1ccccc1C1CC(c2ccccc2)=NC(c2cccs2)N1` (stereo not drawn), 2.57%.
Then `N#C/C(=C\Nc1cccc(Cl)c1)C(=O)NC(=O)c1ccccc1`, with 2.38%.
